This passage reports cytotoxicity call and growth inhibition call results from the antibiotic and cytotoxicity screens of Wong et al. (2023).

The structures appear in SMILES notation. The list shows a part of the results.

In experiment [1] the test system is HSkMC (human skeletal muscle cells). In words: cytotoxicity call (relative viability < 0.9). As to conditions: 10 µM.
For experiment [2], the system named is S. aureus RN4220. As to the kind of experiment: growth inhibition call (relative growth <= 0.2). Particulars: 50 µM.

Turning to `CCC1OC(=O)C(C)C(OC2CC(C)(OC)C(O)C(C)O2)C(C)C(OC2OC(C)CC(N(C)C)C2O)C(C)(O)CC(C)CN(C)C(C)C(O)C1(C)O` (stereo not given), the cytotoxicity call in experiment [1] is “inactive”. In addition, the growth inhibition call in experiment [2] was “active”.

As for `CCS(=O)(=O)N1Cc2cc(C(=O)NCCOC)nc(-c3cccc(-c4ccncc4)c3)c2[C@H]1CCO`, the cytotoxicity call in experiment [1] was “inactive”. For the same compound, in experiment [2], the growth inhibition call was “inactive”.

Turning to `Cc1noc(C)c1S(=O)(=O)Nc1ccc2c(c1)C(=O)N([C@@H](C)CO)C[C@H](C)[C@@H](CN(C)Cc1ccc(Cl)c(Cl)c1)OCCCC[C@H](C)O2`, the cytotoxicity call in experiment [1] is “inactive”. In addition, the growth inhibition call in experiment [2] was “inactive”.

On to `NC(=O)NCC#Cc1ccc2c(c1)[C@]1(C(=O)N2)[C@H](c2ccc(OCCO)cc2)N2[C@H](c3ccccc3)[C@H](c3ccccc3)OC(=O)[C@H]2[C@@H]1C(=O)N1CCCCCCC1`, for which the cytotoxicity call in experiment [1] is “inactive”. In addition, the growth inhibition call in experiment [2] was “inactive”.

Consider `C[C@@H]1CN([C@H](C)CO)C(=O)c2cc(NC(=O)C3CC3)ccc2O[C@@H]1CN(C)C(=O)Nc1ccc2c(c1)OCO2`, for which, in experiment [1], the cytotoxicity call is “inactive”. Moreover, the growth inhibition call in experiment [2] is “inactive”.

On to `Cc1noc(C)c1S(=O)(=O)Nc1cccc2c1O[C@H](CN(C)Cc1ccc(-c3ccccc3)cc1)[C@H](C)CN([C@@H](C)CO)C2=O`, for which the cytotoxicity call in experiment [1] is “inactive”. Besides, the growth inhibition call in experiment [2] is “inactive”.

Regarding `O=C(C[C@@H]1CC[C@H]2[C@@H](COC[C@@H](O)CN2S(=O)(=O)c2ccc(F)cc2)O1)NCc1ccc(Cl)c(Cl)c1`, the cytotoxicity call in experiment [1] is “inactive”. Also, the growth inhibition call in experiment [2] is “inactive”.

In the case of `COc1ccc2c(c1)c(CC(=O)OCC(=O)O)c(C)n2C(=O)c1ccc(Cl)cc1`, in experiment [1], the cytotoxicity call was “inactive”. Moreover, in experiment [2], the growth inhibition call is “inactive”.

On to `C[C@@H]1CN([C@@H](C)CO)C(=O)Cc2cc(NC(=O)Nc3ccc(C(F)(F)F)cc3)ccc2O[C@H]1CN(C)Cc1ccc(Oc2ccccc2)cc1`, for which, in experiment [1], the cytotoxicity call is “active”. Further, the growth inhibition call in experiment [2] was “inactive”.

As to `C[C@@H]1CN([C@H](C)CO)C(=O)c2cc(NS(=O)(=O)c3ccc(F)cc3)ccc2O[C@@H](C)CCCCO[C@@H]1CN(C)S(=O)(=O)c1ccc(Cl)cc1`, in experiment [1], the cytotoxicity call is “inactive”. Also, the growth inhibition call in experiment [2] was “inactive”.

Regarding `CC(C)NC(=O)N(C)C[C@H]1Oc2c(NC(=O)NC3CCCCC3)cccc2C(=O)N([C@H](C)CO)C[C@H]1C`, the cytotoxicity call in experiment [1] was “inactive”. Moreover, in experiment [2], the growth inhibition call is “inactive”.

`CCS(=O)(=O)N1C[C@]2(CN(Cc3cccc(c3)Cl)[C@@H](CO)c3c2c2ccc(cc2n3C)OC)C1`: in experiment [1], the cytotoxicity call is “inactive”. Further, the growth inhibition call in experiment [2] is “inactive”.

With `C[C@H](CO)N1C[C@H](C)[C@H](CN(C)S(=O)(=O)c2ccc3c(c2)OCCCO3)OCc2cn(nn2)CCCC1=O`, in experiment [1], the cytotoxicity call is “inactive”. Besides, the growth inhibition call in experiment [2] was “inactive”.

Turning to `CCc1nc2ccccc2c(N)c1C`, the cytotoxicity call in experiment [1] was “inactive”. Further, the growth inhibition call in experiment [2] was “inactive”.

With `C[C@H]1CN([C@@H](C)CO)C(=O)c2ccccc2-c2ccccc2CO[C@@H]1CN(C)Cc1ccc(Cl)c(Cl)c1`, in experiment [1], the cytotoxicity call is “inactive”. Also, the growth inhibition call in experiment [2] was “inactive”.

For the compound `Cc1noc(C)c1S(=O)(=O)Nc1ccc2c(c1)C(=O)N([C@H](C)CO)C[C@H](C)[C@H](CN(C)CC1CC1)O2`, in experiment [1], the cytotoxicity call is “inactive”. Besides, the growth inhibition call in experiment [2] was “inactive”.

As for `C[C@H]1CN([C@@H](C)CO)C(=O)Cc2cc(NC(=O)C3CCCCC3)ccc2O[C@H]1CN(C)Cc1ccc(C(F)(F)F)cc1`, in experiment [1], the cytotoxicity call was “inactive”. In addition, in experiment [2], the growth inhibition call is “inactive”.

Consider `Cc1noc(C)c1NC(=O)N(C)C[C@@H]1OCCCC[C@@H](C)Oc2ccc(NS(=O)(=O)c3ccc(F)cc3)cc2C(=O)N([C@H](C)CO)C[C@@H]1C`, for which the cytotoxicity call in experiment [1] was “inactive”. Also, the growth inhibition call in experiment [2] is “inactive”.

On to `C[C@H]1CN([C@@H](C)CO)S(=O)(=O)c2ccc(-c3ccc(F)cc3)cc2O[C@@H]1CN(C)S(C)(=O)=O`, for which the cytotoxicity call in experiment [1] was “inactive”. For the same compound, the growth inhibition call in experiment [2] was “inactive”.

In the case of `C[C@@H]1CN([C@@H](C)CO)C(=O)c2cc(NC(=O)NC3CCCCC3)ccc2O[C@H]1CN(C)Cc1ccc(C(F)(F)F)cc1`, the cytotoxicity call in experiment [1] was “inactive”. Also, the growth inhibition call in experiment [2] is “inactive”.

As to `C=CCOC(=O)N(C)C[C@@H]1OCCCC[C@H](C)Oc2ccc(NC(=O)Nc3ccccc3)cc2C(=O)N([C@H](C)COC(=O)c2ccccc2)C[C@H]1C`, in experiment [1], the cytotoxicity call is “inactive”. Besides, the growth inhibition call in experiment [2] is “inactive”.

Take `C[C@H]1CCCCO[C@H](CN(C)C(=O)Nc2ccc(C(F)(F)F)cc2)[C@@H](C)CN([C@@H](C)CO)C(=O)c2cc(NC(=O)c3ccccc3)ccc2O1`: the cytotoxicity call in experiment [1] is “inactive”. The growth inhibition call in experiment [2] is “inactive”.

In the case of `CC(C)NC(=O)Nc1cccc2c1O[C@H](CN(C)C(=O)Nc1ccc3c(c1)OCO3)[C@H](C)CN([C@H](C)CO)C2=O`, the cytotoxicity call in experiment [1] was “inactive”. In experiment [2], the growth inhibition call was “inactive”.

`C[C@@H]1CN([C@H](C)CO)C(=O)c2cccc(NS(=O)(=O)c3ccc(Cl)cc3)c2O[C@H]1CN(C)Cc1ccc(C(=O)Nc2ccccc2N)cc1`: in experiment [1], the cytotoxicity call is “inactive”. Further, the growth inhibition call in experiment [2] is “inactive”.

With `COc1ccc([Si](C)(C)[C@@H]2[C@@H](CCOC(=O)NCCCCCC(=O)NO)O[C@]3(C(=O)N(Cc4ccccc4)c4ccc(I)cc43)[C@H]2C)cc1`, the cytotoxicity call in experiment [1] was “inactive”. Moreover, in experiment [2], the growth inhibition call was “inactive”.

Consider `C[C@@H]1CN([C@@H](C)CO)C(=O)c2cccc(NS(=O)(=O)c3cccs3)c2O[C@@H]1CN(C)S(C)(=O)=O`, for which the cytotoxicity call in experiment [1] is “inactive”. Besides, in experiment [2], the growth inhibition call was “inactive”.

On to `O=C1N[C@H](Cc2c[nH]c3ccccc23)COC(=O)[C@H](Cc2ccc(F)cc2)CC=CC[C@@H]1CC(=O)N(CCO)Cc1ccccc1`, for which the cytotoxicity call in experiment [1] was “inactive”. Moreover, in experiment [2], the growth inhibition call was “inactive”.

As for `CC(C)CC#Cc1ccc2c(c1)O[C@@H](CN(C)C(=O)Cc1ccncc1)[C@H](C)CN([C@H](C)CO)S2(=O)=O`, the cytotoxicity call in experiment [1] was “inactive”. Moreover, the growth inhibition call in experiment [2] was “inactive”.

Take `C[C@@H]1CN([C@@H](C)CO)S(=O)(=O)c2ccc(C#CCN(C)C)cc2O[C@H]1CN(C)Cc1ccc(F)cc1`: the cytotoxicity call in experiment [1] is “inactive”. The growth inhibition call in experiment [2] is “inactive”.

`O=C(C[C@H]1C[C@H]2c3cc(NS(=O)(=O)c4ccc(F)cc4)ccc3O[C@H]2[C@@H](CO)O1)NCc1ccc(Oc2ccccc2)cc1`: the cytotoxicity call in experiment [1] is “active”. The growth inhibition call in experiment [2] was “inactive”.
